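Cultured in 96-well plates, cells were exposed to test compound for 48 hours across five concentrations. GI50: concentration for 50% inhibition of growth. At the TGI there is no net growth.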

This assay relates to NCI-H322M lung. As to the kind of experiment: NCI tumour cell line growth inhibition, 48 h.
As to `O=C(/C=C/c1cccc(O)c1)c1cccc(-n2cc(-c3ccc4ccccc4c3)[nH]c2=O)c1`, the GI50 is 1.66 µM and the TGI was found to be 4.84 µM.

As for `CCOC(=O)C1=CC(C)(C(=O)OCC)Nc2c(nc(N)[nH]c2=O)N1` (centres undefined), the TGI was greater than 10 µM.

`O=C1[C@H]2ON(c3ccccc3)C(c3ccco3)[C@H]2C(=O)N1c1ccc(Cc2ccc(N3C(=O)[C@@H]4ON(c5ccccc5)C(c5ccco5)[C@@H]4C3=O)cc2)cc1` (some centres undefined) yielded a TGI greater than 100 µM.

Take `CC(C)[O-].CC(C)[O-].CN(CCN(C)Cc1cc(F)cc(F)c1[O-])Cc1cc(F)cc(F)c1[O-].[Ti+4]`: the GI50 was 0.691 µM and the TGI is 4.83 µM.

Turning to `N#C/C(=C1\SC(N=Nc2ccc(Cl)cc2)C(=O)N1c1ccccc1)c1nc2ccccc2[nH]1` (centres undefined), the TGI amounted to 96.1 µM.

For `COc1cc([N+](=O)[O-])c(OC)c2c(Nc3ccc(S(=O)(=O)O)c4cc(S(=O)(=O)O)cc(S(=O)(=O)O)c34)cc(C)nc12`, the TGI was greater than 100 µM.

Turning to `CC(C)/C(Cl)=N/OC(=O)Nc1ccc(OC(F)(F)F)cc1`, the TGI came to 30.4 µM.

In turn, `Cc1cc(C)n(C2=NS(=O)(=O)c3ccccc3N2C)n1` yielded a TGI greater than 100 µM.

`COc1cc(C2c3cc4c(cc3[C@@H](Nc3ccc5c(c3)OCO5)C3COC(=O)[C@H]23)OCO4)cc(OC)c1O` (some centres undefined) showed a TGI greater than 100 µM.

For the compound `C/C1=C\CC[C@@](C)(O)[C@@H]2C[C@H](CC/C(C)=C/CC1)C1(CC1)C(=O)O2`, the GI50 is 28.6 µM and the TGI is greater than 100 µM.

`CC(C)Oc1ccc(C(=O)Cn2ccnc2)cc1-n1c(CN2CCN(C(=O)COc3ccc(Cl)cc3)CC2)nc2ccccc2c1=O`: the GI50 was 28.7 µM and the TGI was greater than 100 µM.

Compound `c1ccc2[nH]c(CNc3ccc(C4C[Se]N=N4)cc3)nc2c1` (centres undefined) returned a TGI greater than 100 µM.

As for `[2H]c1nc(=Nc2cc(NC(=O)C=C)c(N(C)CCN(C)C)cc2OC)[nH]c(-c2cn(C([2H])([2H])[2H])c3ccccc23)c1[2H]`, the GI50 was 0.1 µM and the TGI was 1.86 µM.

For the compound `O=[N+]([O-])c1ccc(-c2cc3c(Nc4ccc(Cl)c(C(F)(F)F)c4)ncnc3s2)cc1`, the GI50 is 1.19 µM and the TGI is greater than 100 µM.

`COc1ccc([C@H]2C=[N+]([O-])O[C@H](OC3CCCC3)[C@@H]2OC(C)=O)cc1OC` yielded a TGI greater than 100 µM.

The compound `O=C1c2cccc(O)c2C(=O)c2c(OC3OC(CO)C(O)C(O)C3O)cccc21` (centres undefined) showed a TGI greater than 100 µM.

Consider `CN1N=C(c2ccncc2)OC1c1ccccc1F` (centres undefined), for which the TGI was greater than 100 µM.

`Cc1cc(NS(=O)(=O)c2ccc(NC(NC(=O)C(C(F)(F)F)C(F)(F)F)(C(F)(F)F)C(F)(F)F)cc2)no1` returned a TGI greater than 100 µM.

As to `O=S1(=O)c2cnccc2NC(=NCc2ccccc2)N1c1ccccc1`, the TGI is greater than 100 µM.

On to `CC(C)(C)NCC(COc1ccc([N+](=O)[O-])cc1)OP(c1ccccc1)c1ccccc1` (centres undefined), for which the TGI is greater than 100 µM.

`CC1(C)OC2COC3([C@@H]4OC(C)(C)O[C@@H]4CO)OC(C)(C)OC3C2O1` (some centres undefined) returned a TGI greater than 100 µM.

Consider `O=C(NCCN1CCNCC1)c1ccc(Nc2nc3ccccc3c3occc23)cc1`, for which the GI50 is 15.4 µM and the TGI was 30.6 µM.

In the case of `COc1cccc(COc2cc(-n3cnc4ccccc43)sc2C(N)=O)c1`, the GI50 is greater than 25 µM and the TGI was greater than 25 µM.

The compound `CCOC(=O)C(NC(=O)Nc1ccc(Cl)cc1)(OC)C(F)(F)F` (centres undefined) returned a TGI greater than 100 µM.

For the compound `COC(=O)c1ccc2c(c1)C(=O)c1c-2n(CCCN=[N+]=[N-])c(=O)c2cc([N+](=O)[O-])ccc12`, the GI50 is greater than 100 µM and the TGI is greater than 100 µM.

Regarding `CC(C)C1=C(O)C2=C(C(=O)C1=O)C1(C)CCCC(C)(C)C1C(O)C2OC=O` (centres undefined), the TGI was determined as 21.8 µM.

Compound `C=C1C2Oc3ccccc3C1N(c1ccccc1)O2` (centres undefined) registered a TGI greater than 100 µM.

Consider `COC(=O)[C@H](Cc1ccccc1)NC(=O)N(CCC#N)CCN(C(=O)N[C@@H](Cc1ccccc1)C(=O)OC)c1ccccc1`, for which the TGI was determined as 42.1 µM.

`CC(=O)Oc1c(C)c(C)c2c(c1C)CCC(C)(CC(=O)OCCCCCCCCCCC[P+](c1ccccc1)(c1ccccc1)c1ccccc1)O2` (centres undefined): the GI50 is 0.275 µM and the TGI came to 1.01 µM.

Values taken from PubChem BioAssay (NCI).
